# In the supplement of paper PMC11417369:
# The list shows a part of the results.
# System: PfSIP2 AP2 domain 1 (GST-tagged)
# Test: gcPBM binding intensity (ln(normalized median fluorescence intensity)); higher = stronger DNA binding
# Method in brief: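 Binding intensity is the highest Masliner-normalised natural-log median intensity over replicate spots in either probe orientation. To obtain it, GST-tagged P. falciparum DNA-binding domains made in E. coli were incubated for 1 h on an Agilent 4 × 180k array of primer-extended double-stranded 36-bp intergenic genomic probes plus negative controls. Detection used Alexa488 anti-GST antibody with scanning at 488 nm.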
row,Sequence,gcPBM binding intensity (ln)
1,AAAAAAAAAAAAAAAAAAAAAAATATATATATATTT [GTGCAC_negctrl_site502],8.51
2,ATTAATCAATATAGGCGTACAAAAAAAATAAATTAT [XGTACX_site1513],7.12
3,CCCCTTAATTTATTTTGTACATATAATTTTTTTTTT [XGTACX_site3270],7.21
4,GTATTTTTAAATGACACACACATATATAAATATGTA [CACACA_site6880],7.02
5,ACAAAAATAAGCAAATGTACATATGTATAATATATT [XGTACX_site2492],6.96
6,CGAACAAACAAATAAACACACAAAAAAAAATATATA [CACACA_site1825],6.79
7,ATACTTATGATAAATACACACTTGAAATTAAGGATT [CACACA_site4772],6.94
8,TTTTTTAAAAGATATATAATATGTATGAATATTCAA [XGTACX_negctrl_site380],6.69
9,AATGTGAAAAAAAAAAGTACAGACCTAATCAAAAAA [XGTACX_site2486],6.81
10,AAAAAAAATACATACACACACACACCCACATATATA [CACACA_site3561],7.05
11,AATATAAAAAAAGAGGAGGGATGGTATACTTGTGGT [CACACA_negctrl_site986],7.09
12,TTAAAGCTGACATATACACACATACATAAATTCATA [CACACA_site5377],7.06
13,TATACATATATTATATGTACATATATATATAATATA [XGTACX_site2942],7.26
14,GGACAAGTTTTTTACATAAATAAAAAAAATAAAAAA [XGTACX_negctrl_site125],6.99
15,ATATATATATAATAAACACACAAATAGATATAACAT [CACACA_site3715],8.39
16,CCCCCCCACAGACACACACACATACATACCACATAT [CACACA_site2306],9
17,ATAATGTAGAACTAGAGTACATAAAAAAATAAACAT [XGTACX_site5205],7.57
18,TTTTTTTTTTTTTTTTTTTGTCTTATATATTACGGA [CACACA_negctrl_site322],6.89
19,GCTACACAATTTTTTAGTACACACATATAAATATAT [XGTACX_site3131],7.34
20,TATATATTATCAAGTGGACACACGAAAAAAAGGAAA [CACACA_site3741],7.09
21,TTTTTCATATTATACTTTTATATACATATATAAAAA [XGTACX_negctrl_site281],7.23
22,TAAAGATTGTTCAGTGCATGTTGGCCTGTAAATGGA [TGCATGCA_site315],7.59

row,Sequence,gcPBM binding intensity (ln)
1,GTAATTTTGAGATGATGTACATATTTTTTCCTTGTC [XGTACX_site4103],7.01
2,TAAGATATATTTTTTTGTACACATAATAAAATAATA [XGTACX_site8938],7.01
3,AAAAGAAACTTATTTACGCACACTTTATTGCATGTT [CACACA_site3887],6.79
4,GATAAATCATATATAACACACATATGAATATTACAA [CACACA_site1321],6.93
5,ATGTTATATATGTATTGTACGTATTTTGTATATTAT [XGTACX_site6607],7.4
6,AGTGTTTTTTATAAAGTGCAATATAAAAACAAAATG,8.59
7,AATTTTTTTTTATTGTGTACTTATTTTTTTATATTT [XGTACX_site917],7.44
8,TTTTATTTCATTTGTTGTACTTTCAAAATATTATTA [XGTACX_site2192],7
9,AAGAATAAAGAATGGTGTACATGCATATAAAATATT [XGTACX_site5707],7.01
10,CAACATATGCATATGTGTACATATTTTATTTTCAAC [XGTACX_site2237],7.23
11,ACATACATATGTAAATGTACAAAATATCCATAGATT [XGTACX_site2782],6.81
12,ATATACTCATTAATAACACACAATATGATAACAAAT [CACACA_site5913],7.12
13,AATATATTTCATTTTTGTACACACAACGTTGGAGGG [XGTACX_site6461],7.27
14,TATATATATTTATGCACACAAAATATATTATAGAAT [CACACA_site3740],7.48
15,AATGTTTATTTTGTTTGTACATAAAATGAATAAAAT [XGTACX_site1456],7.17
16,GTTATATATTTTTATGCATGCATTTTTAAATATATA [TGCATGCA_site175],7.39
17,ATACATAAATTTTGTACACACAAAAAAAAAAAAGCT [CACACA_site1351],7.03
18,TTTATATATATAAATATGTAGATAACAATATTCTGA [TGCATGCA_negctrl_site554],6.89
19,TTATTCCTTTTCCTTTTTTTTTTTTAACCAAAAAAA [CACACA_negctrl_site309],7.13
20,AAAATATACATATATGCATGCATATAAATAAAAAAA [TGCATGCA_site812],7.2
21,GATAAAACGTTATGCACACGTACGTGAGTATTTATA [CACACA_site1570],7.17
22,AATGATAAATAAAAAGCATGCAACAAATAAAAATAA [TGCATGCA_site453],7.07

row,Sequence,gcPBM binding intensity (ln)
1,AACAAAACTTTGGATACATGCAAAATTTTTAAATGA [TGCATGCA_site249],6.69
2,GTTTTTTTGTTTTAAAGTACTTAAAAAAAAAATATA [XGTACX_site6998],7.22
3,GGTATACACAAGTATACACACATATAAATATAAATA [CACACA_site7511],6.98
4,TCTTTTAACACATGTGATATTATTTAATAACAATAA [CACACA_negctrl_site339],6.91
5,TGTACATATATATATATATATGTTACTGAAATAAAA [CACACA_negctrl_site1658],7.53
6,AAGAATAACTTTTATACATGCAGCATAATATATTGT [TGCATGCA_site605],6.93
7,CTTTTATAATTCATATGTACTTATTTTTAACATAGG [XGTACX_site7808],7.07
8,AATAACCACAGACACACACACATATAAATATAAATA [CACACA_site7631],7.15
9,GTGATTAATATATACACACATACATATATATATATA [CACACA_site2817],9.13
10,ATATATATGTATACATGTACATATTTTATTATGTGC [XGTACX_site7207],7.06
11,TTACAGATATTTATCTGTACATATATTTAAAAATAT [XGTACX_site7431],6.9
12,TAATTTTTTTAAAAGCGTACATTTAAAAAAAAATAT [XGTACX_site2736],7.26
13,AAAAGTAAAAAAAAAAAAAGTAAAAAAAAAAAAAAA [CACACA_negctrl_site389],6.8
14,TTTTTAAATTCTTTAATATGTTTTATATATCAAAAT [CACACA_negctrl_site75],6.7
15,TCTTATCATTTTAAATCACACACATATATATATATA [CACACA_site8925],9.54
16,TTATTTTATTTAGGGTGTACCCAATTTTTCCATATG [XGTACX_site4957],6.78
17,ACTGTAATATTGAAAGTGCATTAAAGTGTATATTAT [GTGCAC_site9970],8.04
18,ATTTATATTTATAAATGTACACATATATATTTCATT [XGTACX_site2723],7.09
19,TCCTATAATTTTTTAATCAAAATATTTTATCCTTTG [CACACA_negctrl_site793],6.82
20,AAAAATTTTTTACATCGTACAGATATATATAATAAA [XGTACX_site3331],7.05
21,GGATGCACACAAAAGGGTACATAAGAAAAAAACAGG [XGTACX_site8570],7.64
22,CACGCACAGATATATACACACTTTTATTTAAATAAC [CACACA_site6852],7.41

row,Sequence,gcPBM binding intensity (ln)
1,AAAAATAAAATGGACACACACGTTCAAATTTAGATT [CACACA_site5186],6.81
2,TGGGTAAACAAACACACACACATATATATATATATA [CACACA_site1992],9.19
3,AAATATATATATAGTTGTACATATATCGTATATATT [XGTACX_site7867],7.04
4,TTCACTAATAAATACGCACACATATACAGATATATA [CACACA_site4887],7.24
5,AGTTGTTACGAACATACACACGAACATAGACACGGA [CACACA_site8102],7.12
6,TTATTTAAATAATATGTACACACATTTAAAAAATTA [CACACA_site8912],7.04
7,AAAAAAAAATATATAAACACACATATTTATATACAC [GTGCAC_negctrl_site545],6.87
8,ATGAGTGTAATAATATGTACATAACCTACATAATTT [XGTACX_site852],7.09
9,GCACACATATAATAATGTACATATATATATTTAAAA [XGTACX_site4561],7.29
10,TATTGATTATTTGAATGTACTTATTATATTAAATAT [XGTACX_site1304],6.91
11,ACACGCACATATATATAAATATATATATATATAAAT [CACACA_negctrl_site1781],7.35
12,AATAAAAATATTTTTACATGCAAATGTTATATATTT [TGCATGCA_site1056],7.07
13,AAAAAAAATTATTATGAACACACATTTATTATATTC [CACACA_site8443],6.68
14,ATTCTACACAGACATACACACATATATATATATATA [CACACA_site5826],9.35
15,TATATATGTTTATGTAGTACTATATATCCCTTTCTT [XGTACX_site7049],7
16,TAATATGATCTTAATAGTACTTTATTAATAATAACC [XGTACX_site1953],6.95
17,AAAAAAAAAAGACACACACACAAAAAAAGATATATA [CACACA_site6645],6.81
18,TAGAATAAGATAGATATACACACCATTATAAATATA [CACACA_site2500],6.78
19,TTACAAAATAAGAGGCACAAACACAAAAAAAAATAA [CACACA_negctrl_site574],6.95
20,ATAAAAATATTACGCACACACAAACTTATTCATTAT [CACACA_site1969],7.21
21,GTAACTTTATTATACTGTACTATTATATAAGCACAC [XGTACX_site2859],7.42
22,TTGTTCAAACAAAAAATAAAATAATTGAAAATAAAA [CACACA_negctrl_site812],6.87
